# This is one part of the list. Sequences were assembled here from the parent chain. Values near 0.05 are background.
# B1: TEV protease; numbered along this chain (parent)
# chain: MGESLFKGPRDYNPISSSICHLTNESDGHTTSLYGIGFGPFIITNKHLFRRNNGTLVVQSLHGVFKVKDTTTLQQHLVDGRDMIIIRMPKDFPPFPQKLKFREPQREERICLVTTNFQTKSMSSMVSDTSCTFPSGDGIFWKHWIQTKDGQCGSPLVSTRDGFIVGIHSASNFTNTNNYFTSVPKNFMELLTNQEAQQWVSGWRLNADSVLWGGHKVFMVKPEEPFQPVKEATQL
# Variants of: B1
# Test: raw area under fraction-flipped curve 0-4 h after induction (AUC4h, not background-subtracted), DNA-recorder readout of cleavage of the substrate (dimensionless); higher = more cleavage of the substrate by the protease variant
# Conditions: temperature: 34 °C; time window: 0-4 h after rhamnose induction
# Description: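 In vivo DNA recorder in E. coli TOP10(DE3) ΔrhaA at 34 °C. Each TEVp single-site mutant (parent TEVp 0) is paired with a single-site variant of the 7-mer TEVs (canonical ENLYFQ|S). The substrate sits between flexible linkers in a Bxb1-sfGFP-TEVs-SsrA fusion, so cleavage stabilises Bxb1 and speeds flipping of a recombination array, read by NGS. The value is the raw area under the fraction-flipped curve over 0-4 h after rhamnose induction (AUC4h), with ≥20 reads per time point. It is not background-subtracted; inactive controls average about 0.047.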
# 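Note: Bxb1 expression induced with 0.2% (w/v) L-rhamnose at OD600 near 0.5, cultures sampled hourly, flipped fraction per protease–substrate barcode pair counted by paired-end Illumina sequencing.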
Variant,area with substrate ENAYFQS,area with substrate ENCYFQS,area with substrate ENEYFQS,area with substrate ENFYFQS,area with substrate ENHYFQS,area with substrate ENIYFQS,area with substrate ENNYFQS,area with substrate ENRYFQS,area with substrate ENSYFQS,area with substrate ENTYFQS
N116V,0.0622,0.0701,0.0544,0.0545,0.0691,0.0975,0.0618,0.0702,0.0533,0.0622
N116F,0.0622,0.0588,,,,,0.0675,,0.0571,
G2N,0.048,,,0.0593,,,,,,
W199Y,0.0575,,,,,,0.071,,0.0746,0.0863
D137Q,0.0453,0.075,0.0529,,0.0597,,,,0.0963,
Q227D,0.0792,0.0748,,0.0542,0.0461,,,,0.0685,
C131W,0.0704,0.0769,,,,,,,,0.0629
C131K,0.0687,,,,,,0.0606,0.0421,0.0656,0.0534
N206C,0.077,0.0501,0.0622,,,0.101,0.0632,0.054,0.055,0.0575
F180S,0.0561,,,0.0475,,,0.06,,,
D91S,0.0682,,0.076,0.053,,,0.0615,0.0643,0.0412,
I15G,0.047,0.0475,0.0679,0.0484,0.0608,,0.0485,0.0537,,0.0525
V78D,0.0572,,0.0665,0.0541,0.0622,0.0672,,0.0545,0.0626,
V78E,0.0547,0.0564,0.0557,,0.0474,0.0882,0.0532,,0.0571,0.0636
F101I,0.0594,0.0654,,,,0.0674,,,,
E103I,0.0354,,0.0588,,,,0.0527,0.0625,0.0664,
G153T,0.0547,,,0.0472,,,,0.0444,0.0449,
G153F,0.0456,0.0463,,0.0579,,0.0433,,0.0632,,0.0547

Variant,area with substrate ENAYFQS,area with substrate ENCYFQS,area with substrate ENEYFQS,area with substrate ENFYFQS,area with substrate ENHYFQS,area with substrate ENIYFQS,area with substrate ENNYFQS,area with substrate ENRYFQS,area with substrate ENSYFQS,area with substrate ENTYFQS
Y12R,0.0575,0.0605,0.0521,,,,,0.0614,0.0614,0.0697
L190N,0.0664,,0.0543,,,,,0.0624,,
Q74I,0.0724,,0.0509,,0.0793,,0.0559,,,0.062
G213H,0.0412,,,0.0634,,,,,,
Q118W,0.0736,0.0527,0.0473,0.0587,,,,0.027,0.0587,0.0586
R87Q,0.0696,,,,0.059,,0.0342,,,0.118
L99N,0.06,,0.0492,,,0.0755,,0.0545,0.0774,
E195S,0.0611,0.0772,0.0565,,,,,,,0.0816
F218I,0.0838,0.0394,,0.0556,0.0698,,,,0.0564,0.075
S124C,0.065,0.0712,0.0696,0.0651,,,,0.0561,0.064,
S124Y,0.0738,0.0665,,,,,,0.0947,0.0454,
F65Q,0.0647,,0.0515,,,,,,0.0391,
F65I,0.0461,,0.0913,0.0572,,0.0784,0.0584,,0.0488,
V57I,0.065,0.0764,,0.0657,0.0547,0.114,0.0387,,,0.0681
G166E,0.0447,0.0522,0.0569,,,,0.0445,,0.0471,0.0519
Q194W,0.0064,0.0607,0.054,,,,0.0579,0.0659,,0.0667
K185N,0.0878,,,0.0728,,,,0.0466,0.0715,
R50Y,0.0549,,,0.082,0.051,0.14,,0.0811,0.0673,0.0678

# Same assay, conditions: temperature: 34 °C; time window: 0-4 h after rhamnose induction
Variant,area with substrate ENGYFQS,area with substrate ENKYFQS,area with substrate ENPYFQS,area with substrate ENQYFQS,area with substrate ENVYFQS,area with substrate ENWYFQS,area with substrate ENMYFQS,area with substrate ENYYFQS,area with substrate ENDYFQS
N116F,0.015,0.0592,0.0568,0.0754,0.046,,,,
G2N,0.0445,,0.0533,,,0.0373,,,
W199Y,,,,0.0513,0.0636,0.0689,0.0864,,
D137Q,0.0444,,0.053,0.061,0.0978,,0.0751,0.0658,
Q227D,,0.0582,0.0203,0.0601,0.0907,0.0598,,0.039,0.0632
C131W,,0.0677,,,,,0.0993,,0.0485
C131K,,0.108,0.0527,0.0107,,,,,
N206C,0.0653,0.0643,0.0486,0.0626,0.0739,,0.0701,0.0441,
F180S,,,,,0.0553,,,,
D91S,,,,0.0503,0.112,0.0017,,0.0461,
I15G,,,0.0634,0.0516,0.0613,,0.0592,0.0618,0.0676
V78D,0.0456,,,0.0558,0.0586,0.078,,0.0505,0.055
V78E,0.0558,0.0575,0.0609,0.0618,0.0608,,0.062,0.067,0.0586
F101I,,0.0577,,,,0.0707,,,0.0543
E103I,0.0499,0.0694,0.0634,0.06,0.0743,,,,0.0571
G153T,,,0.0568,0.0438,0.0405,,,,0.0335
G153F,,,0.0417,,0.053,0.0222,,,0.0531

Variant,area with substrate ENGYFQS,area with substrate ENKYFQS,area with substrate ENPYFQS,area with substrate ENQYFQS,area with substrate ENVYFQS,area with substrate ENWYFQS,area with substrate ENMYFQS,area with substrate ENYYFQS,area with substrate ENDYFQS
Y12R,0.061,,,0.0681,0.0733,0.0573,0.0971,,0.0473
Q74I,,,,0.0674,0.0602,,,,0.0877
G213H,,,,0.0353,,,,,
Q118W,0.0713,0.0588,,,0.0661,0.0162,,,0.068
R87Q,,,,,,,0.0991,,0.0504
L99N,,,,0.0508,,,,,0.0691
E195S,0.0629,,0.0572,0.0863,0.0423,0.0655,,,0.0618
F218I,0.0589,0.0691,0.0584,0.0644,,,,0.0508,
S124C,0.0794,0.0521,0.071,0.0593,0.0677,0.0532,,,
S124Y,,0.0731,,0.0755,,,,,
F65Q,,,0.0701,,,,0.0673,,
F65I,,0.0758,0.077,0.0591,0.0645,,,0.078,0.0335
V57I,0.0637,,0.0862,0.0609,0.067,,,,
G166E,0.0481,,,0.0468,,0.0441,0.0593,,0.0434
Q194W,,0.067,0.0458,,0.074,,0.0805,0.0627,0.0588
K185N,0.0889,,,0.0519,0.0939,0.0479,,,0.0608
R50Y,0.0741,,,0.0593,,,0.0715,,0.0608

# Reference: the supplement of paper PMC12217912
